Some of the results follow. Single values are uncertain, as repeats are few or missing.
Experiments:
Experiment in all cases: cell count relative to DMSO control; melanoma cells; higher = more viable cells
Conditions in all cases: library dose: low library concentration; 72 h
[1] = system: WM1745
[2] = system: WM3526
[3] = system: WM3619
[4] = system: WM451Lu
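Note: cell number obtained by counting DAPI-stained nuclei in high-throughput microscope images with image analysis software, screen run in 1,536-well plates.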

SMILES: O=C1NC(=O)/C(=C/c2ccc(-c3ccc(F)cc3O)o2)S1 + CCCCCCCCCCCC1=C(O)C(=O)C=C(O)C1=O [Embelin] (first compound 1 µM, partner dose 1.2 µM)
- cell count [1]: 100%
- cell count [2]: 107%
- cell count [3]: 111%
- cell count [4]: 117%

SMILES: Oc1nc(-c2ccc(C(F)(F)F)cc2)nc2c1CSCC2 + CCCCCCCCCCCC1=C(O)C(=O)C=C(O)C1=O [Embelin] (first compound 2 µM, partner dose 1.2 µM)
- cell count [1]: 68.9%
- cell count [2]: 113%
- cell count [3]: 102%
- cell count [4]: 95.4%

SMILES: COc1ccc2c(c1)CCC1C2CCC2(C)C(NCCCCCCN3C(=O)C=CC3=O)CCC12 (stereo not given) + COc1ccc(-c2ccc3c(N4CCOCC4)nc(N4C[C@@H](C)O[C@@H](C)C4)nc3n2)cc1CO [KU0063794] (first compound 0.4 µM, partner dose 0.02 µM)
- cell count [1]: 87.4%
- cell count [2]: 112%
- cell count [3]: 79.9%
- cell count [4]: 94%

SMILES: COc1ccc(-c2ccc3c(N4CCOCC4)nc(N4C[C@@H](C)O[C@@H](C)C4)nc3n2)cc1CO + Oc1nc(-c2ccc(C(F)(F)F)cc2)nc2c1CSCC2 [XAV939] (first compound 0.02 µM, partner dose 2 µM)
- cell count [1]: 78.7%
- cell count [2]: 82.1%
- cell count [3]: 84%
- cell count [4]: 99.7%

SMILES: COc1ccc(-c2ccc3c(N4CCOCC4)nc(N4C[C@@H](C)O[C@@H](C)C4)nc3n2)cc1CO + COc1ccc(COc2ccc(Cc3cnc(N)nc3N)cc2OC)cc1 [GW2580] (first compound 0.02 µM, partner dose 1 µM)
- cell count [1]: 92.5%
- cell count [2]: 106%
- cell count [3]: 90.7%
- cell count [4]: 89.7%

SMILES: COc1ccc(-c2ccc3c(N4CCOCC4)nc(N4C[C@@H](C)O[C@@H](C)C4)nc3n2)cc1CO + COc1cc2ncnc(Nc3ccc(Oc4ccccc4)cc3)c2cc1OC [SrcI1] (first compound 0.02 µM, partner dose 2 µM)
- cell count [1]: 85%
- cell count [2]: 84%
- cell count [3]: 74.6%
- cell count [4]: 111%

SMILES: COc1ccc2c(c1)CCC1C2CCC2(C)C(NCCCCCCN3C(=O)C=CC3=O)CCC12 (stereo not given) + O=C(O)C(=O)Nc1sc2c(c1C(=O)O)CCNC2 [TCS401] (first compound 0.4 µM, partner dose 1.66667 µM)
- cell count [1]: 80.7%
- cell count [2]: 90.5%
- cell count [3]: 70.6%
- cell count [4]: 95%

SMILES: O=C(O)C(=O)Nc1sc2c(c1C(=O)O)CCNC2 + c1cc(-c2cnn3cc(-c4ccc(OCCN5CCCCC5)cc4)cnc23)ccn1 [Dorsomorphin] (first compound 1.66667 µM, partner dose 0.4 µM)
- cell count [1]: 82.2%
- cell count [2]: 87.3%
- cell count [3]: 163%
- cell count [4]: 97.5%

SMILES: COc1ccc2c(c1)CCC1C2CCC2(C)C(NCCCCCCN3C(=O)C=CC3=O)CCC12 (stereo not given) + Cc1cc([N+](=O)[O-])ccc1NS(=O)(=O)c1cc(Cl)ccc1Cl [FH535] (first compound 0.4 µM, partner dose 1 µM)
- cell count [1]: 87.5%
- cell count [2]: 98.5%
- cell count [3]: 95.6%
- cell count [4]: 109%

SMILES: O=C(O)C(=O)Nc1sc2c(c1C(=O)O)CCNC2 + Cn1cc(/C=C2\C(=O)Nc3cccnc32)c2ccccc21 [GW441756] (first compound 1.66667 µM, partner dose 0.4 µM)
- cell count [1]: 89.2%
- cell count [2]: 116%
- cell count [3]: 90.6%
- cell count [4]: 113%

SMILES: COc1ccc2c(c1)CCC1C2CCC2(C)C(NCCCCCCN3C(=O)C=CC3=O)CCC12 (stereo not given) + CC(C)CCN1c2nc(Nc3cc(F)c(O)c(F)c3)ncc2N(C)C(=O)C1C [BID1870] (first compound 0.4 µM, partner dose 0.2 µM)
- cell count [1]: 101%
- cell count [2]: 92.4%
- cell count [3]: 104%
- cell count [4]: 117%

SMILES: c1cc(-c2cnn3cc(-c4ccc(OCCN5CCCCC5)cc4)cnc23)ccn1 [Dorsomorphin] + O=c1cc(-c2cccc3c2Sc2ccccc2S3)oc(N2CCOCC2)c1 [KU55933] (first compound 0.4 µM, partner dose 1 µM)
- cell count [1]: 83%
- cell count [2]: 105%
- cell count [3]: 110%
- cell count [4]: 114%

SMILES: COc1ccc(COc2ccc(Cc3cnc(N)nc3N)cc2OC)cc1 + Cn1cc(/C=C2\C(=O)Nc3cccnc32)c2ccccc21 [GW441756] (first compound 1 µM, partner dose 0.4 µM)
- cell count [1]: 90.5%
- cell count [2]: 93.7%
- cell count [3]: 134%
- cell count [4]: 116%

SMILES: COc1ccc(-c2ccc3c(N4CCOCC4)nc(N4C[C@@H](C)O[C@@H](C)C4)nc3n2)cc1CO + Oc1cc(-c2nc(-c3ccccc3)[nH]c2-c2ccncc2)ccc1Cl [L779450] (first compound 0.02 µM, partner dose 0.2 µM)
- cell count [1]: 95.5%
- cell count [2]: 78.8%
- cell count [3]: 76.6%
- cell count [4]: 143%

SMILES: COc1cc(N2CCC(N3CCN(C)CC3)CC2)ccc1Nc1ncc(Cl)c(Nc2ccccc2S(=O)(=O)C(C)C)n1 + CCCCCCCCCCCC1=C(O)C(=O)C=C(O)C1=O [Embelin] (first compound 0.08 µM, partner dose 1.2 µM)
- cell count [1]: 85%
- cell count [2]: 100%
- cell count [3]: 104%
- cell count [4]: 122%

SMILES: O=S(=O)(c1ccccc1)N(CC(F)(F)F)c1ccc(C(O)(C(F)(F)F)C(F)(F)F)cc1 + O=C(O)C(=O)Nc1sc2c(c1C(=O)O)CCNC2 [TCS401] (first compound 1.4 µM, partner dose 1.66667 µM)
- cell count [1]: 77.2%
- cell count [2]: 104%
- cell count [3]: 100%
- cell count [4]: 96.7%

SMILES: COc1ccc2c(c1)CCC1C2CCC2(C)C(NCCCCCCN3C(=O)C=CC3=O)CCC12 (stereo not given) + CCN(CC)CCCCNc1ncc2cc(-c3cc(OC)cc(OC)c3)c(NC(=O)NC(C)(C)C)nc2n1 [PD173074] (first compound 0.4 µM, partner dose 0.1 µM)
- cell count [1]: 81%
- cell count [2]: 92%
- cell count [3]: 104%
- cell count [4]: 103%

SMILES: Cc1cc([N+](=O)[O-])ccc1NS(=O)(=O)c1cc(Cl)ccc1Cl + CC(C)CCN1c2nc(Nc3cc(F)c(O)c(F)c3)ncc2N(C)C(=O)C1C [BID1870] (first compound 1 µM, partner dose 0.2 µM)
- cell count [1]: 122%
- cell count [2]: 113%
- cell count [3]: 97.6%
- cell count [4]: 113%

SMILES: N#Cc1c(O)c2c(-c3ccc(-c4ccccc4O)cc3)csc2[nH]c1=O + Oc1nc(-c2ccc(C(F)(F)F)cc2)nc2c1CSCC2 [XAV939] (first compound 2 µM, partner dose 2 µM)
- cell count [1]: 87%
- cell count [2]: 102%
- cell count [3]: 84.5%
- cell count [4]: 112%

SMILES: c1cc(-c2cnn3cc(-c4ccc(OCCN5CCCCC5)cc4)cnc23)ccn1 [Dorsomorphin] + Cn1cc(/C=C2\C(=O)Nc3cccnc32)c2ccccc21 [GW441756] (first compound 0.4 µM, partner dose 0.4 µM)
- cell count [1]: 79.5%
- cell count [2]: 107%
- cell count [3]: 116%
- cell count [4]: 76.1%

SMILES: O=S(=O)(c1ccccc1)N(CC(F)(F)F)c1ccc(C(O)(C(F)(F)F)C(F)(F)F)cc1 + Oc1nc(-c2ccc(C(F)(F)F)cc2)nc2c1CSCC2 [XAV939] (first compound 1.4 µM, partner dose 2 µM)
- cell count [1]: 73.2%
- cell count [2]: 91.7%
- cell count [3]: 86.6%
- cell count [4]: 102%

SMILES: COc1cc(N2CCC(N3CCN(C)CC3)CC2)ccc1Nc1ncc(Cl)c(Nc2ccccc2S(=O)(=O)C(C)C)n1 + CC(C)CCN1c2nc(Nc3cc(F)c(O)c(F)c3)ncc2N(C)C(=O)C1C [BID1870] (first compound 0.08 µM, partner dose 0.2 µM)
- cell count [1]: 56.2%
- cell count [2]: 78.2%
- cell count [3]: 87.8%
- cell count [4]: 105%

SMILES: O=C(O)C(=O)Nc1sc2c(c1C(=O)O)CCNC2 + O=c1cc(-c2cccc3c2Sc2ccccc2S3)oc(N2CCOCC2)c1 [KU55933] (first compound 1.66667 µM, partner dose 1 µM)
- cell count [1]: 82.7%
- cell count [2]: 102%
- cell count [3]: 116%
- cell count [4]: 97.6%

SMILES: COc1ccc(COc2ccc(Cc3cnc(N)nc3N)cc2OC)cc1 + c1cc(-c2cnn3cc(-c4ccc(OCCN5CCCCC5)cc4)cnc23)ccn1 [Dorsomorphin] (first compound 1 µM, partner dose 0.4 µM)
- cell count [1]: 74.5%
- cell count [2]: 92.4%
- cell count [3]: 93.9%
- cell count [4]: 106%

SMILES: O=C(O)C(=O)Nc1sc2c(c1C(=O)O)CCNC2 + COc1cc(N2CCC(N3CCN(C)CC3)CC2)ccc1Nc1ncc(Cl)c(Nc2ccccc2S(=O)(=O)C(C)C)n1 [NVP-TAE684] (first compound 1.66667 µM, partner dose 0.08 µM)
- cell count [1]: 83.5%
- cell count [2]: 94.1%
- cell count [3]: 119%
- cell count [4]: 102%

SMILES: COc1cc2ncnc(Nc3ccc(Oc4ccccc4)cc3)c2cc1OC + Cn1cc(/C=C2\C(=O)Nc3cccnc32)c2ccccc21 [GW441756] (first compound 2 µM, partner dose 0.4 µM)
- cell count [1]: 71.9%
- cell count [2]: 93.4%
- cell count [3]: 108%
- cell count [4]: 90.9%

SMILES: Cc1cc([N+](=O)[O-])ccc1NS(=O)(=O)c1cc(Cl)ccc1Cl + c1cc(-c2cnn3cc(-c4ccc(OCCN5CCCCC5)cc4)cnc23)ccn1 [Dorsomorphin] (first compound 1 µM, partner dose 0.4 µM)
- cell count [1]: 78.8%
- cell count [2]: 83.6%
- cell count [3]: 109%
- cell count [4]: 90.6%

SMILES: COc1cc2ncnc(Nc3ccc(Oc4ccccc4)cc3)c2cc1OC + O=C(O)C(=O)Nc1sc2c(c1C(=O)O)CCNC2 [TCS401] (first compound 2 µM, partner dose 1.66667 µM)
- cell count [1]: 91%
- cell count [2]: 106%
- cell count [3]: 116%
- cell count [4]: 110%

SMILES: COc1ccc2c(c1)CCC1C2CCC2(C)C(NCCCCCCN3C(=O)C=CC3=O)CCC12 (stereo not given) + O=C1NC(=O)/C(=C/c2ccc(-c3ccc(F)cc3O)o2)S1 [AS252424] (first compound 0.4 µM, partner dose 1 µM)
- cell count [1]: 78.5%
- cell count [2]: 62.3%
- cell count [3]: 91.5%
- cell count [4]: 97.9%

SMILES: CCN(CC)CCCCNc1ncc2cc(-c3cc(OC)cc(OC)c3)c(NC(=O)NC(C)(C)C)nc2n1 + COc1cc(N2CCC(N3CCN(C)CC3)CC2)ccc1Nc1ncc(Cl)c(Nc2ccccc2S(=O)(=O)C(C)C)n1 [NVP-TAE684] (first compound 0.1 µM, partner dose 0.08 µM)
- cell count [1]: 88.1%
- cell count [2]: 93.6%
- cell count [3]: 120%
- cell count [4]: 98.4%

From the supplement of paper PMC4604168 (melanoma cell lines)
